Experimental data: PubChem BioAssay AID493208 (National Center for Advancing Translational Sciences (NCATS), 2011)
About 340 (0.77%) of roughly 44,000 compounds were called active. Roughly 5% stayed inconclusive and do not appear here. The call rests on the fitted dose curve; in most records, active means well fitted inhibition curve with a large enough effect; inconclusive means small, poorly fitted or top-dose-only effect; inactive means flat fitted curve, though single readings scatter. This is one part of the list.

test: Acumen qHTS Assay for Inhibitors of the mTORC1 Signaling Pathway in MEF (Tsc2-/-, p53-/-) Cells: Sytravon; conditions: phospho-rpS6 immunofluorescence/PI, 24 h; series mostly up to 38.3 µM; activity change, negative = inhibition: at the top concentration;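 further: plate controls were DMSO for no effect and rapamycin for full effect; nearly all actives have a fitted effect of over 50% in size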
Method in brief: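 Read-out: phospho-S6 Alexa-488 intensity over PI intensity per well, scored as % active cells using thresholds from rapamycin (7.5 nM) and DMSO controls. Tsc2-/-, p53-/- MEFs exposed to compound for 24 h; PI cell count recorded as viability.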

SMILES | activity change, negative = inhibition
O=C(CCCCCn1c(=O)[nH]c2ccccc2c1=O)NCc1cccc(Cl)c1 | inactive: 0.226%
CCOc1ccccc1CNC(=O)C1CCN(S(=O)(=O)c2cccc3nonc23)CC1 | inactive: 2.62%
Cn1c(=O)c2c(SCC(=O)N3CCc4ccccc43)nc(-c3cccc(F)c3)nc2n(C)c1=O | inactive: -6.78%
O=C(NCc1ccc(Cl)cc1)c1ccc(CSCc2cccc(Cl)c2)o1 | inactive: -7.17%
O=C(Nc1ccc(Cl)cc1F)c1oc(=O)c2ccccc2c1-c1ccccc1 | inactive: -8.47%
O=C(Cc1ccccc1)N(Cc1cccnc1)c1nc2c(F)cccc2s1 | inactive: -8.1%
Cc1ccccc1OC(=O)c1snnc1C | inactive: -7.29%
Cc1ccnc(NS(=O)(=O)c2ccc(NC(=O)C(C)(C)Oc3ccc(Cl)cc3)cc2)n1 | inactive: -1.23%
CCOc1cccc2cc(-c3cn4c(n3)sc3cc(C)ccc34)c(=O)oc12 | inactive: 0.439%
CCOc1ccccc1NC(=O)CSc1nc2c(c(=O)[nH]1)CCC2 | inactive: -5.65%
Nc1nc(Nc2cccc(C(F)(F)F)c2)sc1C(=O)c1ccccc1 | inactive: -0.8%
Cc1ccc(OCC(=O)Nc2cccc(OCc3cc(=O)n4ccccc4n3)c2)cc1C | inactive: 5.03%
C=C(C)Cn1c(SCC(=O)c2ccc(OC)cc2)nc2sc3c(c2c1=O)CCCC3 | inactive: 2.64%
Cc1cc(Br)ccc1NC(=O)C(Cc1ccccc1)NS(=O)(=O)c1ccc(Br)s1 (stereo unspecified) | inactive: 1.56%
CCOc1cc(C2Nc3ccccc3-c3nnc(SCc4ccccc4)nc3O2)ccc1OC (stereo unspecified) | inactive: 0.553%
CCC(C(=O)Nc1ccc(C(=O)OC)cc1)n1nc(-c2ccc(C)cc2)c2c(c1=O)CCCC2 (stereo unspecified) | inactive: -9.11%
COc1cccc(CNC(=O)c2cc3cccc4c3n2CC(C)S4)c1OC (stereo unspecified) | inactive: -4.56%
C#CCn1c(COc2ccccc2C)nc2ccccc21 | inactive: -7.38%
COc1cc2c(=O)c(S(=O)(=O)c3ccc(F)cc3)cn(Cc3ccccc3C)c2cc1OC | inactive: 4.1%
Cc1ccc(-c2noc(-c3ccc(N4CCC(C)CC4)c([N+](=O)[O-])c3)n2)cc1 | inactive: -18.6%
Cc1ccc(-n2cc(-c3ccccc3)c3c(NC4CCCC4)ncnc32)cc1 | inactive: 9%
COc1cc(OC)c(OC)cc1CNCCSc1nnnn1-c1ccccc1 | inactive: 0.307%
Cc1cccc(N(C)C(=O)CN2C(=O)COc3ccc(S(=O)(=O)N4CCCCCC4)cc32)c1 | inactive: -2.8%
CCN(Cc1ccccc1)C(=O)C1CCN(c2ncnc3c2nc2n3CCCCC2)CC1 | inactive: -0.086%

SMILES | activity change, negative = inhibition
O=C(NCC(c1cccs1)S(=O)(=O)c1cccs1)c1ccccc1 (stereo unspecified) | inactive: -3.71%
CC(NC(=O)Cn1ncc2c3ccccc3n(Cc3ccc(F)cc3)c2c1=O)c1ccccc1 (stereo unspecified) | inactive: -0.133%
CCOC(=O)c1ccc(NC(=O)C2Cc3ccccc3CN2S(=O)(=O)c2ccc(Cl)cc2)cc1 (stereo unspecified) | inactive: 0.77%
Cc1cc(Br)ccc1NC(=O)CCS(=O)(=O)c1cccc2nonc12 | inactive: -16.1%
CCOC(=O)c1c(NC(=O)c2noc3c2CC(C(C)(C)C)CC3)sc2c1CCCC2 (stereo unspecified) | inactive: -0.432%
Cc1ccc(C)c(N2CCN(C(=O)CN3C(=O)COc4ccc(S(=O)(=O)N5CCCCCC5)cc43)CC2)c1 | inactive: -7.07%
CC(=O)c1sc2c(c1C)c(=O)n(-c1ccc(Cl)cc1)c(=O)n2Cc1ccc(Cl)cc1 | inactive: -19.7%
Cc1cc(C)c(Cn2c(C)c(CNCCCc3ccccc3)c(C(=O)O)c2C)c(C)c1 | inactive: -10.5%
CCOC(=O)c1cc2c(=O)n3ccccc3nc2n(CC2CCCO2)c1=NC(=O)c1cccc(C(F)(F)F)c1 (stereo unspecified) | inactive: -20.5%
CC(=O)N1CCC(N(Cc2ccco2)C(=O)Nc2cccc(C)c2)CC1 | inactive: -9.5%
COc1ccc(-c2cc(C(=O)Nc3c(C(=O)c4ccc(Cl)cc4)oc4ccccc34)no2)cc1 | inactive: -4.4%
Cc1cccc(NC(=O)c2cnn(-c3ccccc3)c2-n2cccc2)c1C | inactive: 0.811%
CCC1CN(C(=O)N2CCC(C(=O)NCc3ccc(C)o3)CC2)c2cc(C)ccc2O1 (stereo unspecified) | inactive: -10.1%
Cc1nc2c(C(=O)NCc3ccccc3Cl)cnn2c(C)c1Cc1c(F)cccc1Cl | inactive: -6.43%
CC(=O)N1CCCc2cc(S(=O)(=O)N3CCC(C(=O)NCCC(C)C)CC3)ccc21 | inactive: -13.4%
O=C(NC1CC(=O)N(c2ccc(F)cc2)C1)c1cc2ccccc2o1 (stereo unspecified) | inactive: 1.91%
CN1CCN(C(c2ccccc2)c2sc3nc(-c4ccco4)nn3c2O)CC1 (stereo unspecified) | inactive: -0.584%
COc1ccccc1NC(=O)n1ncc2c(C)cccc21 | inactive: 2.87%
CCOC(=O)c1nnc2c(-c3ccc(OC)cc3)c(C)nn2c1N | inactive: -3.7%
O=S(=O)(Nc1cccc(-c2ccc(N3CCCCC3)nn2)c1)c1cccs1 | inactive: 0.774%
CC1CCc2nc(NC(=O)COc3ccc(C(C)(C)C)cc3)sc2C1 (stereo unspecified) | inactive: -23.5%
CC(=O)c1cccc(NC(=O)CCS(=O)(=O)c2cc(Br)cc3c2N(C(=O)C2CC2)CC3)c1 | inactive: 2.76%
CCCC(=O)N1CC(=O)Nc2ccc(Cl)cc2C1c1ccc(F)cc1 (stereo unspecified) | inactive: -8.26%
Cc1csc2nc(COC(=O)COc3ccccc3F)cc(=O)n12 | inactive: -0.118%

SMILES | activity change, negative = inhibition
CCOc1ccc(S(=O)(=O)Nc2ccc3oc(C)c(C(=O)OCCOC)c3c2)cc1 | inactive: -29.7%
O=C(Cc1ccc(NC(=O)N2CCSc3ncccc32)cc1)NCc1ccccc1Cl | inactive: -5.79%
CCS(=O)(=O)c1ncc(N(Cc2ccco2)Cc2sccc2C)c(C(=O)Nc2cc(C)ccc2C)n1 | inactive: -9%
Cn1c(C(=O)NCc2ccc(F)cc2)cc2c(=O)n(C)c3ccccc3c21 | inactive: -11.3%
COc1ccc(CCNC(=O)Cn2nnc(-c3ccc(C(F)(F)F)cc3)n2)cc1OC | inactive: 0.15%
CCCn1c(=O)c2sccc2n2c(CCCC(=O)N3CCN(c4ccccc4)CC3)nnc12 | inactive: 1.69%
COCCn1c(SCC(=O)Nc2ccc(F)c(Cl)c2)nc2c(oc3ccccc32)c1=O | inactive: -1.58%
COc1ccc(C(=O)NCCc2sc(-c3cccc(F)c3)nc2C)cc1 | inactive: -2.65%
Cc1nc2ccn(Cc3cccnc3)c(=O)c2cc1C(=O)Nc1ccc(OC(F)(F)F)cc1 | inactive: -22.1%
Cc1ccccc1NS(=O)(=O)c1ccc2[nH]cc(C(=O)N3CCCC3)c(=O)c2c1 | inactive: -0.655%
CCOC(=O)C1=C(CN2CCN(c3ccccc3)CC2)NC(=O)NC1c1ccc(C)cc1 (stereo unspecified) | inactive: -2.86%
COc1cccc(C(=O)NC(=O)Nc2ccc(-c3cc(C(F)(F)F)nn3-c3ccccc3)cc2)c1 | inactive: -12.9%
Cc1sc2ncn(CC(=O)Nc3cccc(C(F)(F)F)c3)c(=O)c2c1S(=O)(=O)N1CCC(C)CC1 | inactive: 5.63%
O=C(Nc1ccccc1C(=O)OCc1cc(=O)n2nc(C3CC3)sc2n1)c1cccc(Cl)c1 | inactive: 1.76%
Cc1ccc(Cl)cc1NC(=O)Cn1c(=O)c(CNc2ccccc2)cc2cc3c(cc21)OCCO3 | inactive: -2.03%
CCCCn1c(-c2ccc(S(=O)(=O)N3CCOCC3)cc2)csc1=Nc1ccccc1 | inactive: -2.61%
Cc1cccc(Cn2c(CN3CCC(C(=O)NCCc4ccccc4)CC3)cc3ccccc32)c1 | inactive: -9.47%
COc1ccc(-c2c(C)nn3c4c(cnc23)C(=O)CC(c2ccc(C)cc2)C4)cc1 (stereo unspecified) | inactive: -1.82%
CCN(c1cccc(C)c1)S(=O)(=O)c1nnc(NC(=O)c2cccs2)s1 | inactive: 14%
Cc1c(C(=O)Nc2ccccc2Br)oc2ccc(S(=O)(=O)N3CCCCC3)cc12 | inactive: 9.97%
CCC(=O)Nc1nnc(S(=O)(=O)N(C)Cc2ccccc2)s1 | inactive: 1.58%
COc1cccc(NC(=O)Cn2c(=O)n(-c3ccc(CC(=O)NCC4CCCO4)cc3)c(=O)c3ccccc32)c1 (stereo unspecified) | inactive: -7.47%
CCOc1ccccc1NC(=O)c1cccc2c1C(=O)N(C1CCCCC1)C2 | inactive: -8.69%
Cc1cc(C)cc(NC(=O)NCCn2nnc3cc(S(=O)(=O)N(C)C)ccc32)c1 | inactive: 0%

SMILES | activity change, negative = inhibition
CSc1ncc(Cl)c(C(=O)N(Cc2ccccc2Cl)C2CCS(=O)(=O)C2)n1 (stereo unspecified) | inactive: 1.04%
CCOc1ccc(C(=O)OCc2cc(=O)n3nc(C4CCCCC4)sc3n2)cc1 | inactive: -6.71%
CCCN1C(=O)C(NC(=O)c2ccccc2OC)(C(F)(F)F)C(C(=O)OC)=C1C (stereo unspecified) | inactive: 0.413%
CCOc1ccc(NC(=O)Cc2csc(COc3cccc(C)c3)n2)cc1 | inactive: 0.381%
CCOc1ccccc1C1C(C(=O)Nc2ccccc2OC)=C(C)Nc2nc3ccccc3n21 (stereo unspecified) | inactive: 2.47%
Cc1ccc2nc(NC(=O)c3cc(=O)c4cc(C)c(C)cc4o3)sc2c1 | inactive: 3.57%
CSc1ccc(CNC(=O)CCn2ccc3cc(S(=O)(=O)N4CCCC4)ccc32)cc1 | inactive: -6.5%
CCOc1ccc(NC(=O)Cn2c(C)ccc(C#N)c2=O)cc1 | inactive: 0.381%
CCc1nnc2c3ccccc3nc(N3CCN(c4ccc(C)cc4C)CC3)n12 | inactive: 1.62%
COc1ccccc1CNC(=O)c1ccc(C)c(-n2cnc3cccnc32)c1 | inactive: -14.8%
Cc1cc(Br)ccc1NC(=O)c1cc2c(s1)-c1ccccc1SC2 | inactive: -1.31%
O=C(CCCn1c(=O)c2cccn2c2cccnc21)NCCc1ccc(Cl)cc1 | inactive: 0.781%
CCOC(=O)c1ccccc1NC(=O)CN(c1ccccc1OC)S(=O)(=O)c1ccc(C)cc1 | inactive: -0.178%
COc1ccc(CN2C(=O)C(NC(=O)c3ccc(C)cc3)(C(F)(F)F)N=C2c2ccccc2)cc1 (stereo unspecified) | inactive: 3.97%
COc1ccccc1NC(=O)CSc1nc2c(oc3ccccc32)c(=O)n1-c1ccc(C)cc1 | inactive: -4.91%
CCOC(=O)N1CCc2c(sc3c2c(=O)n(-c2ccc(Cl)cc2)c(=O)n3CC(=O)c2ccc(F)cc2)C1 | inactive: 0.0741%
COc1ccc(NS(=O)(=O)c2nnc(NC(=O)c3ccccc3F)s2)cc1 | inactive: 6.01%
COc1ccc(-n2ccnc(NCCc3ccc(S(N)(=O)=O)cc3)c2=O)cc1 | inactive: 5.85%
COc1cc(/C=C/c2nc(C#N)c(NC3CCCCC3)o2)cc(OC)c1OC | inactive: 1.57%
Cc1ccc(CNc2nc3c(S(=O)(=O)c4ccccc4)nnn3c3ccsc23)cc1 | inactive: 0.694%
CCNC(=O)CCSc1nnc(-c2ccc(O)cc2)o1 | inactive: -1.21%
CCC(Oc1ccc(F)cc1)C(=O)Nc1cc(-c2ccc(C)cc2)no1 (stereo unspecified) | inactive: -1.34%
COc1cccc(CNC(=O)Nc2cc(C(=O)NCc3cccc(F)c3)ccc2N2CCCC2)c1 | inactive: 0%
CCN(CC)c1ccc(NC(=O)c2cc(CN3CCCC3)on2)c(C)c1 | inactive: 0%
